In the supplement of paper PMC3334620:
The full ranking holds about 33,000 sequences; the median of “E-score (-0.5 to 0.5)” is about -0.013, and the highest 2% start at about 0.3. The list shows a part of the results.

target: T1, Msn1 (UniProt P22148); experiment: PBM E-score (8-mer binding enrichment) (E-score (-0.5 to 0.5)); higher = stronger / more preferred TF binding; most listed sequences are background and not binding sites; details: protein concentration: 200 nM; construct: GST-full length
T1 sequence: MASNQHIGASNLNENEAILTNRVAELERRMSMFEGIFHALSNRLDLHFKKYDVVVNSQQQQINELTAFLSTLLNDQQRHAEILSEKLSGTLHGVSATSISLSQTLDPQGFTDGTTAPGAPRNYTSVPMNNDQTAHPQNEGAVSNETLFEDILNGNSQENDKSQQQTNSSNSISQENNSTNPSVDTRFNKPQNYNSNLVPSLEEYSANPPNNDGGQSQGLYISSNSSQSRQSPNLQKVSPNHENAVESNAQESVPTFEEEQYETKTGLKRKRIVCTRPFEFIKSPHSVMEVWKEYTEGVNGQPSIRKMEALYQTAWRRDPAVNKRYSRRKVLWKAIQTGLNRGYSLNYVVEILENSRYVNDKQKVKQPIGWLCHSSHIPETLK
Outline: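 The E-score, a modified Wilcoxon-Mann-Whitney statistic, was computed by the Universal PBM Analysis Suite for every ungapped eight-base word pooled with its reverse complement. Scans behind it were normalised with masliner after bound GST-tagged yeast transcription factors were detected with fluorescent anti-GST. The proteins, at about 100-200 nM, had been applied to universal all-10-mer Agilent arrays made double-stranded by primer extension.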

Sequence | PBM E-score
CCTGATGC | 0.147
ATACCCAG | -0.149
ATTGAACA | 0.124
CCCGAGAA | 0.0155
AGGTGACG | -0.168
AAGAGTCG | 0.00939
CGTGTAGA | -0.0556
CACGTCAC | -0.02
GGGATCCA | 0.00832
ATATAACG | 0.101
CGTACGGC | -0.134
CAATATAA | 0.166
TGCGAGCA | -0.0671
TGCAAGAA | 0.0972
CCTCCGAG | -0.0927
GGATCGGA | 0.072
GAATGGAA | 0.124
AAGGGTAA | -0.0625
CCAGAGGA | -0.0856
AAATCAGG | -0.0179
CCGAACGC | 0.158
ACACGAGG | -0.0456
GATGGTCA | -0.0299
CGAAATCG | 0.0598
CTGAACAA | 0.0941

Sequence | PBM E-score
CTTAGATC | 0.0107
CGCTCCCG | -0.226
CTGTGCCA | -0.0517
CGCGCCGC | 0.13
CATGGACG | 0.137
ACCAACCC | -0.122
AGAATTAT | 0.0891
ACAGCTGA | -0.0496
ACGTCGGA | -0.0834
AGGTTCAG | -0.061
CTTCCTCC | -0.239
CTTAAAAA | 0.0876
AACGCGTG | 0.0608
CTAAGCTA | -0.0424
AAGTCACC | -0.0109
AGTCGGGC | -0.0664
ACTGCTCC | -0.046
GGAGCTGA | -0.102
CTCTTGGA | -0.016
CCAGGGAG | -0.331
ATTGACTA | -0.0987
GGCCGTCA | -0.153
GAAATCTC | -0.0374
CATCCTTA | -0.116
AGAAGGGG | -0.266

Sequence | PBM E-score
CCGCCTCA | -0.171
CCTGCGCG | -0.124
ACGTTAAC | 0.0282
CGAAGATA | 0.0502
ACATTCAC | 0.223
ACGCTCTG | -0.116
CCACCATA | -0.22
ATTTGATG | -0.00854
GTCTCCCA | -0.172
AGGATCTC | -0.137
AAACACTC | 0.103
AGCACACA | -0.143
CTGCACAA | 0.011
CAACCGAC | 0.187
CTTCGTGA | 0.00689
ATGGGTGC | -0.12
AGGAGTCC | -0.192
TCGGCACA | 0.0287
ACCCGGCT | -0.169
GACGGCCC | -0.328
ATCATCCG | -0.0827
CCGAGTTA | 0.0697
GACTGTTA | 0.0353
TCTGCACA | 0.077
AAGCAGGC | -0.309

Sequence | PBM E-score
CTGTTCCA | -0.0479
AAGACAAC | 0.221
GCAAGGAC | 0.395
GCACCTGA | 0.133
GCGGAAAA | 0.113
AAGTCTAG | -0.107
ACCATGAC | 0.181
ATTTGACC | 0.0269
ACACAGTA | 0.239
ACCCTGAT | -0.0959
ACAGAACT | 0.065
AACGATGG | -0.107
CTGATATC | -0.0457
AATCTAAA | 0.0237
AGATGAGA | -0.0935
ATAAGGGC | -0.11
ATCACCAC | 0.0496
AGGCAAAC | 0.0501
ACTTAGCG | 0.074
GTCGAACA | 0.169
ACTTTGAA | 0.0379
CAGTAGTC | -0.305
CACCGCTC | -0.232
ATGATATG | 0.213
GTGCACGA | -0.0525

Sequence | PBM E-score
CCTTCTCG | -0.268
GGAGTGAC | 0.0714
CAGAGAGG | -0.274
AAAGAGTT | -0.0984
AAACAACC | 0.00751
GTTAGAAA | -0.0269
CCACGGGG | -0.212
CCGCCAAC | -0.179
GTGAGAAA | 0.124
AGAGAGGA | 0.00154
ATTTCTGC | 0.164
CTTAAGCA | -0.0812
CCCGCATA | 0.0346
GCCGTACA | 0.177
CAGATAAC | -0.0567
ACTCGTGG | 0.0321
CTCTCAGA | -0.151
ACCGTTAG | 0.0723
AGCCAATG | -0.128
AATATGAC | 0.243
CCTATTAA | 0.0343
ACCGGTAA | -0.0138
GTGTCGTA | 0.228
CCCTGCCG | -0.254
GAGGAGGA | -0.304

Sequence | PBM E-score
AATTATTG | 0.139
TAGATTCA | -0.192
CCCGGACA | 0.425
ACACGCGA | 0.216
ATCCAGCC | -0.109
CTTATGTA | 0.124
TAACGTAA | -0.0647
CGGACAGA | 0.302
CTTTTAAC | 0.0576
GTGCGTCA | 0.0646
CAACTAGC | 0.139
GGTACGCA | 0.141
GTGCCGTA | 0.0364
CGGGTCAC | -0.134
AAACGGTT | -0.0672
ACGCCTAG | -0.0718
AGAATCGA | 0.0469
CGTATCAG | -0.0169
ATTCAGAG | 0.152
CCGAACTA | 0.074
CACGAGAC | 0.0936
GTCGGTCA | 0.0653
AGACTGAA | 0.0137
ACCTCCAT | -0.0948
CCCGTTCG | -0.0405

Sequence | PBM E-score
AACTTGGT | 0.0403
AAAGTCCG | 0.342
CCACATAG | -0.102
AAAGTCAC | 0.266
CCCCCTAA | -0.259
TCACTACA | 0.161
TACCAATA | 0.0996
AAAAAGCA | -0.0461
GAGTTCAC | -0.0688
AAAGGATG | 0.0884
GGACCGCC | -0.202
ACCGTGCT | -0.258
AGTATTGG | -0.0788
CAGGTATG | 0.00988
CGCTCGAC | -0.116
TCGGATCA | 0.157
CTCCTGAC | -0.00148
CAGTAAGG | 0.0234
CTTAGCGC | 0.0554
AGAACGAC | 0.0155
AAACGAAT | 0.0996
AGCGTCTG | -0.0393
